Test results reported in the BET-seq Pho4 binding data (Le et al. 2018).
The other results are listed elsewhere or left out. The energies were worked out here from pooled read counts, against the library average; single values are noisy.

biological target: T1, Pho4 (S. cerevisiae) (UniProt P07270); assay: relative binding free energy (BET-seq); higher = weaker binding; conditions: reference: library average
T1 sequence: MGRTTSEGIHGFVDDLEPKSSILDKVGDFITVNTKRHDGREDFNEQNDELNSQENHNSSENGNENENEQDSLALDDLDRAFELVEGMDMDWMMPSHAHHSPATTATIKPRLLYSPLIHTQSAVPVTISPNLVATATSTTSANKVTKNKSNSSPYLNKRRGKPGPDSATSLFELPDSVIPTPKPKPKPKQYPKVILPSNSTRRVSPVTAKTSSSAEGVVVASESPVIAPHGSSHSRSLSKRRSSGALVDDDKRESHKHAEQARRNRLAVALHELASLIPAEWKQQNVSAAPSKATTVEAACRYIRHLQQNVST

Row | Sequence | relative binding free energy
1 | GTTGGCACGTGATTCG | -0.07 kcal/mol
2 | AATGGCACGTGCTGGG | -0.16 kcal/mol
3 | CGTTGCACGTGGCGGT | -0.15 kcal/mol
4 | TCGTTCACGTGGGTTA | 0.11 kcal/mol
5 | TAAATCACGTGTGTAG | 0.18 kcal/mol
6 | CGAATCACGTGAGGTT | 0.39 kcal/mol
7 | TTTGTCACGTGTTCAC | 0.23 kcal/mol
8 | AATTTCACGTGGGGGG | 0.26 kcal/mol
9 | CGTCGCACGTGCGGGG | -0.09 kcal/mol
10 | AATTACACGTGTGGTA | 0.03 kcal/mol
11 | AATTTCACGTGGGGCG | 0.24 kcal/mol
12 | AGGGGCACGTGAAGTA | 0.16 kcal/mol
13 | TTTATCACGTGCGTCG | 0.07 kcal/mol
14 | TCTCGCACGTGGGTGT | -0.26 kcal/mol
15 | TGAAGCACGTGAAAGG | 0.21 kcal/mol
16 | TGGTACACGTGGTAGC | 0.1 kcal/mol
17 | GGGGGCACGTGGAGAA | 0.01 kcal/mol
18 | CTAGTCACGTGAGTTG | 0.19 kcal/mol
19 | GGGTGCACGTGGTGAT | 0 kcal/mol
20 | GGCGGCACGTGACGTG | 0.02 kcal/mol
21 | GTGCGCACGTGTTTGT | -0.08 kcal/mol
22 | TGGGGCACGTGCGGAG | -0.23 kcal/mol
23 | TAATTCACGTGTTTAG | 0.14 kcal/mol
24 | GACGGCACGTGTGTGT | -0.03 kcal/mol
25 | AATTCCACGTGGTAGT | -0.03 kcal/mol

Row | Sequence | relative binding free energy
26 | AGGAACACGTGTTTGG | -0.01 kcal/mol
27 | TTGTTCACGTGAGTAC | 0.41 kcal/mol
28 | TTCTTCACGTGTGTTT | 0.33 kcal/mol
29 | TGCTACACGTGTTGGG | -0.02 kcal/mol
30 | GGTAACACGTGTAATT | 0.12 kcal/mol
31 | AGTTGCACGTGGTCGG | -0.06 kcal/mol
32 | AAATTCACGTGGGATT | 0.26 kcal/mol
33 | GTGTACACGTGTTAGA | -0.07 kcal/mol
34 | TGCTACACGTGCTGGA | 0.15 kcal/mol
35 | TGTTGCACGTGGCAGA | -0.07 kcal/mol
36 | TGCAACACGTGGGTTT | -0.12 kcal/mol
37 | GCCTGCACGTGTGAGG | 0.18 kcal/mol
38 | TGGTTCACGTGTTACT | 0.27 kcal/mol
39 | GCAAGCACGTGGGGTG | -0.22 kcal/mol
40 | GTTGGCACGTGCGTTC | -0.13 kcal/mol
41 | GAGTGCACGTGTTTAA | 0.02 kcal/mol
42 | TGAGGCACGTGCAGTT | -0.2 kcal/mol
43 | CAGGTCACGTGGGTTG | -0.02 kcal/mol
44 | TATGGCACGTGACATG | 0.01 kcal/mol
45 | GGTAACACGTGGTCAG | -0.08 kcal/mol
46 | TTTTGCACGTGTTTAG | 0.09 kcal/mol
47 | TCAGGCACGTGTTAGG | 0 kcal/mol
48 | GTTGACACGTGATAGG | 0.14 kcal/mol
49 | TTGCTCACGTGCGTTT | 0.05 kcal/mol
50 | GTTGCCACGTGTGTGT | 0 kcal/mol

Row | Sequence | relative binding free energy
51 | GGCTGCACGTGGATGC | 0.06 kcal/mol
52 | GGCTCCACGTGTTTTG | 0.23 kcal/mol
53 | TCGGTCACGTGATGGC | 0.3 kcal/mol
54 | TGGGGCACGTGGAGAA | -0.04 kcal/mol
55 | CTTTTCACGTGGGTGT | 0.21 kcal/mol
56 | TGTGGCACGTGCTGAG | -0.23 kcal/mol
57 | ATTGGCACGTGTCATG | -0.12 kcal/mol
58 | GGGTACACGTGGCTGT | 0.01 kcal/mol
59 | GCTATCACGTGTGTTG | 0.16 kcal/mol
60 | CTCGGCACGTGCGGTG | -0.21 kcal/mol
61 | AATGTCACGTGGACGG | 0.17 kcal/mol
62 | TTCTTCACGTGATTGA | 0.32 kcal/mol
63 | TTGTGCACGTGCTCGT | -0.04 kcal/mol
64 | CTGGTCACGTGTGCTG | 0.07 kcal/mol
65 | TGTGACACGTGTTAAA | 0.05 kcal/mol
66 | GTTTGCACGTGTGGAT | 0.13 kcal/mol
67 | TAGCGCACGTGTTTAT | -0.09 kcal/mol
68 | AATGGCACGTGGTGAA | -0.1 kcal/mol
69 | AGGTCCACGTGGGTTG | -0.13 kcal/mol
70 | GCGGTCACGTGGAGGA | 0.05 kcal/mol
71 | CGCCTCACGTGGGGGG | 0.01 kcal/mol
72 | GTCTTCACGTGCTATT | 0.46 kcal/mol
73 | AGGGGCACGTGGAAAA | -0.1 kcal/mol
74 | CTATGCACGTGTGATG | -0.04 kcal/mol
75 | TATATCACGTGGTTCT | 0.01 kcal/mol

Row | Sequence | relative binding free energy
76 | TAAGGCACGTGATGGT | 0.03 kcal/mol
77 | TAATGCACGTGTGGCT | 0.03 kcal/mol
78 | GTATTCACGTGATTAT | 0.24 kcal/mol
79 | CATGTCACGTGGCTTG | 0.21 kcal/mol
80 | TGTGTCACGTGTCGAG | 0.07 kcal/mol
81 | TGGGTCACGTGCTGTG | 0.17 kcal/mol
82 | TTTGCCACGTGAGGAA | 0.2 kcal/mol
83 | ATTCTCACGTGCGGGG | 0.38 kcal/mol
84 | AGAGGCACGTGTATTT | -0.06 kcal/mol
85 | TGATGCACGTGTAGAG | 0.03 kcal/mol
86 | TCGTGCACGTGTGTAG | -0.15 kcal/mol
87 | GGTTGCACGTGTGACG | 0.08 kcal/mol
88 | TAGATCACGTGGAGGT | 0.1 kcal/mol
89 | TATGTCACGTGAGAGA | 0.15 kcal/mol
90 | GATTGCACGTGGAGCG | 0.07 kcal/mol
91 | ATGCGCACGTGGTTGT | -0.12 kcal/mol
92 | CGTTACACGTGTGTGA | 0.21 kcal/mol
93 | TTCGTCACGTGGGGAG | -0.13 kcal/mol
94 | TTGTTCACGTGGTGGT | 0.26 kcal/mol
95 | TGTCGCACGTGTAGGG | -0.03 kcal/mol
96 | TTTGTCACGTGCTCTT | -0.04 kcal/mol
97 | TGTCGCACGTGAGCTG | 0.14 kcal/mol
98 | GTCTGCACGTGCATGG | 0.05 kcal/mol
99 | TTGGACACGTGTGTGG | 0.09 kcal/mol
100 | GCGGGCACGTGGACGG | -0.12 kcal/mol

Row | Sequence | relative binding free energy
101 | TGAAACACGTGAATTG | 0.3 kcal/mol
102 | TAGATCACGTGGGGCA | -0.04 kcal/mol
103 | GTGGTCACGTGTTTTC | 0.26 kcal/mol
104 | AGTGCCACGTGGGGGG | -0.26 kcal/mol
105 | TGTATCACGTGGTGTA | 0.12 kcal/mol
106 | CGCGGCACGTGAGGTG | 0.13 kcal/mol
107 | TGGAGCACGTGAAGCG | 0.15 kcal/mol
108 | AATAGCACGTGATGTA | -0.04 kcal/mol
109 | GGTGCCACGTGGGAAG | -0.04 kcal/mol
110 | TTGAACACGTGTATAG | 0 kcal/mol
111 | TTTACCACGTGATTAT | 0.13 kcal/mol
112 | CGATGCACGTGGTGCG | -0.14 kcal/mol
113 | TGGGGCACGTGACTTA | 0.06 kcal/mol
114 | TGATTCACGTGACAGT | 0.41 kcal/mol
115 | GGGGTCACGTGGAGGC | 0.16 kcal/mol
116 | TAGCTCACGTGTTAGT | 0.3 kcal/mol
117 | TTGGTCACGTGGATCT | 0.2 kcal/mol
118 | CTTGGCACGTGGAGCG | -0.12 kcal/mol
119 | GGGGACACGTGTACGT | 0.06 kcal/mol
120 | TAATTCACGTGAACGG | 0.47 kcal/mol
121 | GGTCACACGTGTGTAA | 0.19 kcal/mol
122 | ATTAGCACGTGCAGGT | -0.14 kcal/mol
123 | AGTTGCACGTGAATGC | 0.33 kcal/mol
124 | TTATTCACGTGGGCGC | 0.14 kcal/mol
125 | TAGGTCACGTGACATG | 0.22 kcal/mol

Row | Sequence | relative binding free energy
126 | GTAATCACGTGGGGTG | -0.03 kcal/mol
127 | TAGAGCACGTGAAAGT | 0.27 kcal/mol
128 | CATTACACGTGGGTAT | -0.11 kcal/mol
129 | GCGGTCACGTGCGGGT | 0.06 kcal/mol
130 | GGATGCACGTGGTCTG | -0.06 kcal/mol
131 | TAAATCACGTGATATG | 0.2 kcal/mol
132 | TATGTCACGTGGAGCA | 0.16 kcal/mol
133 | CGGGTCACGTGACGGG | 0.22 kcal/mol
134 | TAGGGCACGTGGCACT | -0.25 kcal/mol
135 | TGTAGCACGTGATGCG | 0.18 kcal/mol
136 | GTATTCACGTGCGGCG | 0.2 kcal/mol
137 | GGTTCCACGTGGCGGA | 0.06 kcal/mol
138 | CTGGTCACGTGGTGCG | -0.03 kcal/mol
139 | GAATGCACGTGGGAGG | -0.01 kcal/mol
140 | CTTTTCACGTGGTAAA | 0.15 kcal/mol
141 | TTGAACACGTGCTAGT | 0 kcal/mol
142 | ATCGGCACGTGGAGGT | -0.11 kcal/mol
143 | GGGTTCACGTGAGCGA | 0.4 kcal/mol
144 | TAAAGCACGTGGATAG | -0.04 kcal/mol
145 | TGGTGCACGTGTTCGT | -0.04 kcal/mol
146 | GAAAGCACGTGGTATT | -0.04 kcal/mol
147 | GGTTTCACGTGGGGAG | 0.27 kcal/mol
148 | ATCAGCACGTGTGTTT | 0.06 kcal/mol
149 | TAGGTCACGTGTGGCA | 0.04 kcal/mol
150 | TCTAACACGTGGGGCT | 0 kcal/mol

Row | Sequence | relative binding free energy
151 | GAGTCCACGTGAGTGG | 0.25 kcal/mol
152 | ATGTGCACGTGAGAAG | 0.16 kcal/mol
153 | TTGGCCACGTGGGGCG | -0.26 kcal/mol
154 | TGTAGCACGTGAGGGC | 0.13 kcal/mol
155 | GTCGGCACGTGCCGGG | -0.08 kcal/mol
156 | AATGGCACGTGAATTG | 0.17 kcal/mol
157 | ATTAGCACGTGGTTCA | -0.19 kcal/mol
158 | GGTTACACGTGTAGGG | 0.22 kcal/mol
159 | TATACCACGTGTGTGT | -0.14 kcal/mol
160 | AAGGGCACGTGTTTGA | -0.14 kcal/mol
161 | GGTTTCACGTGTATGT | 0.19 kcal/mol
162 | TGGGGCACGTGTTGCA | -0.15 kcal/mol
163 | TGGTTCACGTGCTTGT | 0.31 kcal/mol
164 | CTTAGCACGTGGGTTA | -0.2 kcal/mol
165 | CAAAGCACGTGTAGGT | 0.03 kcal/mol
166 | AGAGTCACGTGGTTAG | 0.14 kcal/mol
167 | ATGCTCACGTGTAGTG | 0.17 kcal/mol
168 | CGGGGCACGTGGTGTC | -0.11 kcal/mol
169 | CTAGGCACGTGGGACG | -0.24 kcal/mol
170 | TTCGGCACGTGTTGGT | -0.02 kcal/mol
171 | CGGTGCACGTGGTTAT | -0.06 kcal/mol
172 | GAGAGCACGTGATGAG | 0.28 kcal/mol
173 | AGAATCACGTGGGGTA | -0.14 kcal/mol
174 | TACTCCACGTGTGGGT | 0.05 kcal/mol
175 | TTTGCCACGTGTGGGG | -0.01 kcal/mol

Row | Sequence | relative binding free energy
176 | CACGTCACGTGTTTGG | 0.13 kcal/mol
177 | GGGGCCACGTGTGGTG | 0 kcal/mol
178 | TGTTACACGTGTTCAT | 0.02 kcal/mol
179 | GCGTTCACGTGTGCTG | 0.34 kcal/mol
180 | ATTGACACGTGGGGTT | -0.12 kcal/mol
181 | TATCGCACGTGGGATT | -0.2 kcal/mol
182 | AGGCTCACGTGTGGGG | 0.2 kcal/mol
183 | TCGGACACGTGTGGTG | 0.08 kcal/mol
184 | TCCGGCACGTGGTGTG | -0.07 kcal/mol
185 | TGTTTCACGTGATAAA | 0.36 kcal/mol
186 | ATACTCACGTGAGGGG | 0.26 kcal/mol
187 | TGGTTCACGTGAGTCG | 0.49 kcal/mol
188 | GATTGCACGTGAGTTA | 0.33 kcal/mol
189 | AGCCTCACGTGTGTGT | 0.09 kcal/mol
190 | GGGAGCACGTGTACTG | -0.02 kcal/mol
191 | GGGGTCACGTGGTCGC | -0.08 kcal/mol
192 | TGACGCACGTGCAGGG | -0.03 kcal/mol
193 | ATGAACACGTGAGGTG | 0.3 kcal/mol
194 | ATTTTCACGTGTGTTA | 0.33 kcal/mol
195 | AAAGGCACGTGCGGGA | -0.14 kcal/mol
